Results taken from the supplement of paper PMC12015411.
Bacterial growth in Mueller-Hinton broth at 37 °C with the drug at the dose given, alone or with nitroxoline. Checkerboards on E. coli BW25113: OD600 at the end of exponential growth as a fraction of no-drug wells. Colistin series: OD595 at 10.75 h as a fraction of the colistin-free well. 1 = full growth, lower = more inhibition. No active / inactive call per well. Checkerboard doses stop near each drug's IC75, and their values pile up at 1, as if capped there. Colistin and gentamicin are mixtures; one drawing stands for each.

Tested on: Escherichia coli BW25113
Test: growth relative to no-drug wells (fraction of no-drug control); higher = more growth, less inhibition
Protocol: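 8 x 8 checkerboard in cation-adjusted Mueller-Hinton broth at 37 °C; OD600 at the end of exponential growth as a fraction of no-drug wells, two biological replicates.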

C[C@H]1COc2c(N3CCN(C)CC3)c(F)cc3c(=O)c(C(=O)O)cn1c23 [Levofloxacin]
nitroxoline concentration 0 µg/ml
Conditions | growth
0.0005 µg/ml | 0.968
0.0009 µg/ml | 0.935
0.0013 µg/ml | 0.936
0.0017 µg/ml | 0.945
0.0022 µg/ml | 0.938
0.0026 µg/ml | 0.96
0.003 µg/ml | 0.988

C[C@H]1COc2c(N3CCN(C)CC3)c(F)cc3c(=O)c(C(=O)O)cn1c23 [Levofloxacin] + Oc1ccc([N+](=O)[O-])c2cccnc12 [nitroxoline]
growth
Conditions | nitroxoline concentration 0.136 µg/ml | nitroxoline concentration 0.255 µg/ml | nitroxoline concentration 0.374 µg/ml | nitroxoline concentration 0.493 µg/ml | nitroxoline concentration 0.612 µg/ml | nitroxoline concentration 0.731 µg/ml | nitroxoline concentration 0.85 µg/ml
0.0005 µg/ml | 0.869 | 0.743 | 0.576 | 0.506 | 0.463 | 0.3119 | 0.243
0.0009 µg/ml | 0.888 | 0.747 | 0.623 | 0.383 | 0.455 | 0.319 | 0.268
0.0013 µg/ml | 0.92 | 0.774 | 0.507 | 0.499 | 0.423 | 0.294 | 0.24
0.0017 µg/ml | 0.87831 | 0.732 | 0.5023 | 0.344 | 0.368 | 0.301 | 0.254
0.0022 µg/ml | 0.844 | 0.8 | 0.564 | 0.333 | 0.2793 | 0.251 | 0.251
0.0026 µg/ml | 0.868 | 0.66 | 0.424 | 0.382 | 0.303 | 0.263 | 0.254
0.003 µg/ml | 0.929 | 0.641 | 0.358 | 0.4 | 0.262 | 0.299 | 0.232

CC1(C)S[C@@H]2[C@H](/N=C/N3CCCCCC3)C(=O)N2[C@H]1C(=O)O [Mecillinam]
nitroxoline concentration 0 µg/ml
Conditions | growth
0.0008 µg/ml | 0.97
0.0013 µg/ml | 0.937
0.0015 µg/ml | 0.948
0.0025 µg/ml | 0.911
0.003 µg/ml | 0.929
0.005 µg/ml | 0.814
0.006 µg/ml | 0.77

CC1(C)S[C@@H]2[C@H](/N=C/N3CCCCCC3)C(=O)N2[C@H]1C(=O)O [Mecillinam] + Oc1ccc([N+](=O)[O-])c2cccnc12 [nitroxoline]
growth
Conditions | nitroxoline concentration 0.136 µg/ml | nitroxoline concentration 0.255 µg/ml | nitroxoline concentration 0.374 µg/ml | nitroxoline concentration 0.493 µg/ml | nitroxoline concentration 0.612 µg/ml | nitroxoline concentration 0.731 µg/ml | nitroxoline concentration 0.85 µg/ml
0.0008 µg/ml | 1 | 0.9978 | 0.733 | 0.405 | 0.48 | 0.366 | 0.305
0.0013 µg/ml | 1 | 0.973 | 0.751 | 0.58 | 0.462 | 0.343 | 0.283
0.0015 µg/ml | 1 | 0.967 | 0.782 | 0.557 | 0.493 | 0.379 | 0.295
0.0025 µg/ml | 1 | 1 | 0.868 | 0.591 | 0.448 | 0.3772 | 0.296
0.003 µg/ml | 1 | 1 | 0.9744 | 0.62 | 0.506 | 0.345 | 0.303
0.005 µg/ml | 0.9971 | 1 | 0.9114 | 0.708 | 0.5 | 0.392 | 0.337
0.006 µg/ml | 0.909 | 0.835 | 0.667 | 0.514 | 0.42 | 0.357 | 0.34

C[C@@H](O)[C@H]1C(=O)N2C(C(=O)O)=C(S[C@@H]3CN[C@H](C(=O)N(C)C)C3)[C@H](C)[C@H]12 [Meropenem]
nitroxoline concentration 0 µg/ml
Conditions | growth
0.0562 µg/ml | 0.891
0.0968 µg/ml | 0.777
0.1125 µg/ml | 0.811
0.1935 µg/ml | 0.4659
0.225 µg/ml | 0.219
0.387 µg/ml | 0.0341
0.45 µg/ml | 0.0369

C[C@@H](O)[C@H]1C(=O)N2C(C(=O)O)=C(S[C@@H]3CN[C@H](C(=O)N(C)C)C3)[C@H](C)[C@H]12 [Meropenem] + Oc1ccc([N+](=O)[O-])c2cccnc12 [nitroxoline]
growth
Conditions | nitroxoline concentration 0.136 µg/ml | nitroxoline concentration 0.255 µg/ml | nitroxoline concentration 0.374 µg/ml | nitroxoline concentration 0.493 µg/ml | nitroxoline concentration 0.612 µg/ml | nitroxoline concentration 0.731 µg/ml | nitroxoline concentration 0.85 µg/ml
0.0562 µg/ml | 0.85 | 0.816 | 0.785 | 0.648 | 0.581 | 0.497 | 0.453
0.0968 µg/ml | 0.822 | 0.813 | 0.736 | 0.6043 | 0.534 | 0.513 | 0.502
0.1125 µg/ml | 0.761 | 0.731 | 0.6707 | 0.61 | 0.551 | 0.514 | 0.489
0.1935 µg/ml | 0.675 | 0.6282 | 0.657 | 0.576 | 0.513 | 0.467 | 0.433
0.225 µg/ml | 0.551 | 0.591 | 0.615 | 0.533 | 0.527 | 0.475 | 0.448
0.387 µg/ml | 0.16 | 0.27 | 0.295 | 0.331 | 0.342 | 0.345 | 0.297
0.45 µg/ml | 0.0412 | 0.114 | 0.213 | 0.241 | 0.232 | 0.2833 | 0.246

CN(C)c1ccc(O)c2c1C[C@H]1C[C@H]3[C@H](N(C)C)C(O)=C(C(N)=O)C(=O)[C@@]3(O)C(O)=C1C2=O [Minocycline]
nitroxoline concentration 0 µg/ml
Conditions | growth
0.0125 µg/ml | 1
0.0215 µg/ml | 1
0.025 µg/ml | 1
0.043 µg/ml | 1
0.05 µg/ml | 1
0.086 µg/ml | 1
0.1 µg/ml | 1
